Sequences with one replicate were seen in a single cluster, so their values are uncertain.
System: ATP
Assay: switch fluorescence ratio, 500 uM ATP over buffer (Cy3 cluster intensity, sum of 5 cycles each) (fold (ratio)); higher = stronger signal-on switching upon ATP binding; sequences stand for … in TCGTCGGCAGCGTCAGATGTGTATAAGAGACAGTTTTTTTTTTTTTTTTTTTTTTTTT…TC
Details: aptamer strand: ATP DNA aptamer (quencher-CACCTGGGGGAGTATTGCGGAGGAAGG + anchor), 100 nM annealed; ATP concentration: 500 uM; one replicate
Method in brief: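 The fluorescence ratio divides summed target-cycle Cy3 intensity by summed buffer-cycle Cy3 intensity for each cluster and is averaged per switch-domain sequence. Cy3-labelled switching-strand clusters on a modified Illumina MiSeq flow-cell were annealed to 100 nM quencher-labelled ATP aptamer, then imaged in selection buffer and again after 15 min with 500 uM ATP at 22 °C. Five such cycles were run, with NaOH stripping and re-annealing between them, and clusters outside 100-1000 RFU were excluded.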
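Note: ATP exposure 15 min at 22 °C before imaging.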

Sequence	switch fluorescence ratio
GATTGACCTG	1.06
GGAAACTCGA	1.03
CTAAGCAGAG	1.09
TAGAAGGTGA	1.1
TCCATCCGGT	1.16
GGAATGTTCG	0.919
AGATGGTCGG	0.983
GGGGGTACTC	0.986
ACGGAGCCGG	1.1
TACTGTATAT	1.21
AGTAGTACTT	0.975
CTGCGGCTTC	0.992
CCATAATAAT	1.02
GGACTGTGGA	0.983
CACGGTGGGG	1
GGATCTGGCG	0.965
GACATCTCGA	1.03
TCTAGCTCGG	0.989
CTTTATAGTG	0.946
ATATCTCCGT	1.11
AGTAAATGGT	0.955
ATACGGGTTA	1.01
TAGTATGGGC	1.01

Sequence	switch fluorescence ratio
AGAGCTGATC	1.02
AGCGTGACGC	0.992
ATTACCTCGT	0.962
TGCCTAATGG	1.03
GCTGCCTCAC	1.24
AGGGTGCGCG	0.972
AAATCGTGAT	1.01
CTAGCTGGGA	1.01
CTTACCTAGC	1.09
CATACAGAGG	1.02
TCGGAACCTA	1.03
TCAGGTATAT	0.987
GCAAAATTCC	1.1
AGGTGGGCTT	0.995
ACCCAAAAAC	1.06
CTCACGAAAC	1.35
GCCTAGCTAT	0.998
GTGAAGGGTC	0.996
GTTCCAGCAA	2.93
TTCGCGGAGT	0.981
CCCGTTTATC	1.08
AACTACGGGG	1.01
ATCTCAAGGG	1.03

Sequence	switch fluorescence ratio
ACGTGCATTG	0.977
TATGAGCTAT	0.992
AATCTTTATC	0.98
GTAGTCTTTT	0.984
CTAGTGCGTT	1.03
AAGAATGCG	1.02
TCAGTAGT	1.09
CATCGGGTTG	1.02
TAAGGAGG	1.01
TTAGCTGATA	1.01
GAGGGAGTGA	1.06
CAAGTGATGG	0.949
TCACGATGCG	1.06
ATATTACGAG	1.03
TGTAAAAATT	1.01
TTCCTGTTCA	1.04
CAAGATTCGC	0.977
GTCTGGAAAT	0.99
CGACGCGCGC	2.25
CCCAGGGGGG	1.07
AGAGGCAGTA	1.1
ATTTCTGTTG	0.998
GAATGGGCGC	0.979

Sequence	switch fluorescence ratio
TATGCAGGAT	1.01
AACAAGAGCC	1.03
GGGCTCAAGA	0.978
ATGTGGGAAG	0.961
TACTGTACGT	1.52
AAGATTCATA	0.947
TGTTGGGG	1.02
TACCGGGATG	1.03
GTTATCCTGA	1.01
CTATTTGTC	1.03
GCCGGCCAAG	0.971
TAGGGCCTAT	0.923
TGCATGAACA	1.06
TTCTCCTTGG	1.43
GGATGGGGTA	0.996
CGATTGGAA	1.03
CTAGACCAAG	0.961
TAGCGCGGC	1.01
TGGTATGGCC	1.02
GAATACAGGC	1.05
GGTCGTGGGA	0.965
CGAAGCAGAT	4.88
TCACTTATTT	1.02

Sequence	switch fluorescence ratio
TGCCACTTTA	1.09
TCGGCCGGAT	1.06
AGTTGTCG	1.09
TAAAGTGGTA	0.967
AGGTGATCCG	0.916
TACAGATGGT	1.02
CTGTTCCCCG	1.07
ACAGGGCAAT	0.959
AATAACCA	1.02
GGCTTGTAAA	0.987
GAATGTTCAA	0.97
TAATTTAAAC	0.988
TCGTCACCAC	1.09
TGCAATAGCC	1.69
TCCCTGTCGG	1
TTACTTTGTG	0.992
ACTTTGTGA	1.05
CGACCGGAAT	3.97
AAAGCCGCCG	1.06
AGAATACAAG	0.986
CGTAAATGAC	1.09
TGAACGAGGC	0.969
ATCGCGCGC	0.979

Sequence	switch fluorescence ratio
CAATGAGGCT	0.995
AGGTAAAACG	1.03
ATTAATAAT	0.975
TGTTGAATTG	0.964
CTTAGCTTGA	1
TATCTACCCA	1.02
ATAACTCCTT	1.03
AGGATTAAAG	1.01
GATTAGTCAT	1.02
TGCTTTGGCC	1.08
CGTTCGTCGC	1.02
ATGGAAGCAT	0.967
TTTCTTGGAC	1.02
TTGCGCAAAT	1.59
ATGGCGTTGG	1
GAAATAACCG	0.995
AACCGCTACA	1.36
ATGGGAGGCC	0.937
TTATCTCCGT	1.21
TCAATTTCTT	0.942
GAAACTCGTT	1.25
GTTTCCACGA	1
CTCTAATGT	1

Sequence	switch fluorescence ratio
TCGCTACGGC	1.09
ATCTGAGAG	1.02
AGTTACACGG	1.04
AGACTGGGAA	1.01
TGACGACATG	1.04
GATTGTAGGA	0.997
GCCTCTCGAC	1.18
ACATGCAT	1.03
TACCACGATT	1.06
ATAGAAAGGT	1.03
TGTGAAGATT	0.976
AGTGAGAAGT	1.02
AGTCCTCTCT	0.963
TCAGGTGTCC	1.38
GGGGCACGGA	0.977
TTGATGAACG	1.08
CGAAGTGTGC	1.47
CCGCTGAGCT	2.08
TTAGAAACAT	1.11
